The record followed here is the supplement of paper PMC9446081.

The campaign covered roughly 39,000 compounds. About 220 (0.56%) showed activity. This is one part of the list.
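Also: static incubation at 37 °C against the wild-type strain, values averaged over two biological replicates.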

The test concerns Escherichia coli K-12 BW25113. Nature of the test: relative growth (OD600 normalised to plate interquartile mean) (fraction); higher = less growth inhibition, active = 0.2 or less. The following applies: 50 µM; LB; incubation time: overnight (16-24 h).
Regarding `CC[C@H]1OC(=O)[C@H](C)[C@@H](O[C@H]2C[C@@](C)(OC)[C@@H](O)[C@H](C)O2)[C@@H](C)[C@@H](O[C@H]2O[C@H](C)C[C@H](N(C)C)[C@H]2O)[C@](C)(O)C[C@@H](C)C(=O)[C@H](C)[C@@H](O)[C@]1(C)O`, the relative growth is inactive: 0.375. With `CC1=CC(=O)C(C(C)C)=CC1=O` the figure was inactive: 0.97; with `Cc1noc(C)c1S(=O)(=O)N(C)C[C@@H]1OCCCC[C@H](C)Oc2ccc(N(C)C)cc2C(=O)N([C@H](C)CO)C[C@@H]1C`, inactive: 0.969. To `C[C@@H]1CN([C@H](C)CO)C(=O)c2cc(NS(=O)(=O)c3cn(C)cn3)ccc2O[C@@H]1CN(C)S(=O)(=O)c1cccs1` belongs inactive: 0.99; to `C[C@@H]1CCCCO[C@@H](CN(C)C(=O)NC2CCCCC2)[C@H](C)CN([C@@H](C)CO)C(=O)c2cc(NC(=O)CCCCCC(=O)Nc3ccccc3N)ccc2O1`, inactive: 0.95; to `C[C@@H]1CCCCO[C@@H](CN(C)S(=O)(=O)c2ccc(Cl)cc2)[C@H](C)CN([C@H](C)CO)C(=O)c2cc(NS(=O)(=O)c3ccc(Cl)cc3)ccc2O1`, inactive: 1.02. Take `CCCCCC/C=C\CCCCCCCC(=O)O`: the relative growth was inactive: 1.

Consider `COCC#Cc1cnc2c(c1)C(=O)N([C@H](C)CO)C[C@H](C)[C@@H](CN(C)S(=O)(=O)c1ccccc1)O2`, for which the relative growth was inactive: 1. To `COCC(=O)N1C[C@H](C)[C@H](OC)CN(C)C(=O)c2ccc(NC(=O)c3ccc(F)cc3)cc2OC[C@H]1C` belongs inactive: 0.983. Turning to `COc1ccccc1NC(=O)C[C@H]1CC[C@H]2[C@@H](COc3ccc(NS(C)(=O)=O)cc3C(=O)N2C)O1`, the relative growth was inactive: 0.981. To `Cc1cc(CO)c(O)c(CO)c1` belongs inactive: 1.01; to `Cc1ccc(S(=O)(=O)N(C)C[C@@H]2OCCCC[C@H](C)Oc3ccc(NS(C)(=O)=O)cc3C(=O)N([C@H](C)CO)C[C@H]2C)cc1`, inactive: 1.03. `C[C@H](CO)N1C[C@H](C)[C@H](CN(C)Cc2ccc(C(=O)O)cc2)Oc2c(NC(=O)c3ccc(-c4nccs4)cc3)cccc2C1=O`: the relative growth was inactive: 1.02. With `Cc1ccc(S(=O)(=O)N(C)C[C@@H]2OCCCC[C@@H](C)Oc3ccc(NS(=O)(=O)c4ccc(Cl)cc4)cc3C(=O)N([C@@H](C)CO)C[C@@H]2C)cc1` the figure was inactive: 1.04; with `COc1ccc([C@H]([C@H](Cc2ccccc2)OC(C)=O)N(C[C@H](/C=C/c2ccccc2)NC(=O)C(Cl)(Cl)Cl)[C@@H](Cc2ccccc2)C(OC)OC)cc1`, inactive: 1.04; with `CN([NH2+][O-])C(=O)N[C@@H]1[C@@H](O)[C@H](O)[C@@H](CO)O[C@@H]1O`, inactive: 0.865.
